The list shows a part of the results. These are noisy estimates, calculated here from bound and input reads.
molecular target: T1, Pho4 (S. cerevisiae) (UniProt P07270); assay: relative binding free energy (BET-seq); higher = weaker binding; conditions: reference: library average
T1 sequence: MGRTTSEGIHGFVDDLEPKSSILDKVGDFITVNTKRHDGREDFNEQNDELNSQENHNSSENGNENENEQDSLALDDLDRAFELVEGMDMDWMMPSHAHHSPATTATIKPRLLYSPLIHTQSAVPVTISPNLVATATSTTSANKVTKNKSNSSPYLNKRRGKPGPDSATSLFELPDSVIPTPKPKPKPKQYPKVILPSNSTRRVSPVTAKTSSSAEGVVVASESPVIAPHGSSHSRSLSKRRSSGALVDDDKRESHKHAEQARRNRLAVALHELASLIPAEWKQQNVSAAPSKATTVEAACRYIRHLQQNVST

Sequence | relative binding free energy [kcal/mol]
TGTCTCACGTGCATTT | 0.27
GTGGACACGTGTGCGG | -0.1
TTTCGCACGTGAGAGT | 0.06
GTAATCACGTGGTTGA | 0.08
TTAGGCACGTGTCGAT | 0.06
GGGAGCACGTGTGTGT | -0.07
ATGGGCACGTGCATTA | -0.24
GTAGGCACGTGATCGG | -0.19
GGCGGCACGTGGATTT | -0.09
GATTTCACGTGTAATG | 0.32
TGGGTCACGTGGGCAT | -0.03
ACGGGCACGTGTAGTA | -0.12
AAGGTCACGTGCTTTG | 0.15
ATGTGCACGTGGCTTC | -0.04
TGAGTCACGTGTTGTG | 0.1
TTATGCACGTGTGCTT | 0.07
CGGTACACGTGTTGAA | 0.15
AGGAACACGTGTGGAG | 0.11
GATTGCACGTGGAGGA | 0.05
AATGTCACGTGTTAAG | 0.09
GAGGTCACGTGTGTTA | 0.15
TTAAGCACGTGGTAAA | -0.2
TGGTGCACGTGGTCGA | -0.24

Sequence | relative binding free energy [kcal/mol]
CGGGTCACGTGTAGTT | 0.15
CGGGTCACGTGCGGGG | 0.11
GGGAGCACGTGGTATT | -0.03
GGAGACACGTGCGCGG | -0.15
GTTTTCACGTGTTCAG | 0.29
GAGCACACGTGGGGGT | 0.06
GGTTGCACGTGAGGAC | 0.4
ACTGGCACGTGTGGTG | -0.08
AGTGCCACGTGGGTGT | -0.25
AGGGACACGTGTGGAG | 0.08
GGCGGCACGTGGTGAG | -0.08
AGGGACACGTGATCGG | 0.03
TGTCGCACGTGGAAAG | 0.04
TCGTGCACGTGATATG | -0.07
TGTCTCACGTGGCTGT | -0.04
CTGGTCACGTGGGCGT | -0.07
AGGGACACGTGGGAGG | -0.1
GGTTACACGTGGCGTA | 0.12
AGTGGCACGTGTTGTA | -0.12
GGTCACACGTGGAAGG | 0.31
ATGGTCACGTGCATAG | 0.06
GGTGGCACGTGTTGAA | -0.05
ATTTACACGTGGTGAT | -0.08

Sequence | relative binding free energy [kcal/mol]
TGCTACACGTGTAGTA | 0.09
TGCAGCACGTGGTGTT | -0.2
CGCGACACGTGGGTTT | -0.01
GCTGGCACGTGTTGAT | -0.03
GTAGGCACGTGTGAAT | 0.11
GATAGCACGTGTTGGA | 0.08
AGTATCACGTGTTGGA | 0.23
TCGATCACGTGTGTAT | 0.35
ATGGTCACGTGTGTTC | 0.15
TTTGACACGTGATCTA | 0.19
CTGGACACGTGGGTTT | 0.02
AGTATCACGTGATTTA | 0.34
GGTAGCACGTGATTCT | 0.12
GGAGTCACGTGGTAGT | 0.17
TATTGCACGTGTGCCG | 0.07
ATGTGCACGTGGTGAC | -0.03
TCGGGCACGTGTGAGT | -0.08
TATTTCACGTGCTAAG | 0.16
ACTGTCACGTGATGTA | 0.27
GGTCGCACGTGGGGAG | -0.11
CTGAACACGTGGTTGT | -0.11
CAAATCACGTGTGGGG | 0.12
AATTTCACGTGATGAG | 0.41

Sequence | relative binding free energy [kcal/mol]
TAAATCACGTGTATTG | 0.04
AAGTGCACGTGTATTT | 0.05
AGTGCCACGTGGGTTG | -0.29
GTTCACACGTGATGGT | 0.3
CATTTCACGTGATTTG | 0.42
TACCGCACGTGGTTTT | -0.09
AGATTCACGTGTATAG | 0.16
CGCTTCACGTGGGGGT | 0.12
TAAGTCACGTGGGTAG | 0.15
AGTCTCACGTGGTTGT | 0.13
TAATACACGTGTGGCG | 0.18
GTGGACACGTGTGACG | 0.21
AGTGGCACGTGTAATG | -0.05
ATTTTCACGTGTAGAA | 0.17
GTCTTCACGTGGTAAT | 0.36
GTTTGCACGTGGGGTC | -0.05
GGGTTCACGTGGTAGG | 0.4
GAAGACACGTGGGGGT | -0.06
TAGGGCACGTGTGGGA | 0.01
TCATTCACGTGGCTTG | 0.19
GTGAACACGTGAGTAT | 0.1
ATGGGCACGTGAGTGC | 0.09
TATCGCACGTGAAGTG | 0.07

Sequence | relative binding free energy [kcal/mol]
GCCGGCACGTGGGTAG | -0.15
ATGCACACGTGAGGTA | 0.22
TGGTGCACGTGTGCGG | 0.06
GGGGCCACGTGTTGGG | 0.05
TGAAGCACGTGGAGTT | -0.1
TAGAGCACGTGTGGGT | -0.09
GGGATCACGTGTGCTT | 0.23
ATGGTCACGTGACTGT | 0.16
GTTGTCACGTGACTGG | 0.24
GAAGACACGTGTTTGG | -0.03
TGTTACACGTGTAGGT | 0.15
TCTGTCACGTGTATTA | 0.01
GGAGACACGTGAGGAT | 0.36
GAGATCACGTGGCTTG | 0.19
GATGCCACGTGTTTGT | 0.01
CGGGACACGTGAGGAG | 0.23
TCGGGCACGTGCTTTG | -0.19
TATCGCACGTGGTGAG | -0.04
GAGGGCACGTGCAGAG | -0.08
GTGTGCACGTGTAGAT | 0.17
GCGTGCACGTGGAGGC | -0.03
CGGTGCACGTGGTTTC | 0.06
TGCAGCACGTGGCGGT | -0.19

From the BET-seq Pho4 binding data (Le et al. 2018)
